This note sets out measurements from PMC7819943, “Rice protein-binding microarrays: a tool to detect cis-acting elements near promoter regions in rice”.

Some of the results follow.

In the test the target is T1, OsWOX13 (Oryza sativa, UniProt Q5QMM3 1-267).
T1 sequence: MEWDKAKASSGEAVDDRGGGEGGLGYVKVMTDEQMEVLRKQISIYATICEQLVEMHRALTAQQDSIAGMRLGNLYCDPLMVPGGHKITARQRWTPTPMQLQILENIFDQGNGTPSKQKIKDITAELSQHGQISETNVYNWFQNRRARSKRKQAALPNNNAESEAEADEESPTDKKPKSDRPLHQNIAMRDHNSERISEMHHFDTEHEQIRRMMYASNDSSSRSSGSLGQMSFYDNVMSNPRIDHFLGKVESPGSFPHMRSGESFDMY
The test can be described thus: protein-binding microarray (RPBM); PBS, 2% BSA, 51.3 ng/ul salmon testes DNA, 50 uM zinc acetate, 200 nM TF, 25 C, 1 h; high values mean tight binding. Particulars: protein: recombinant; tags: N-terminal polyhistidine and DsRed monomer fusion (pET32a); label: CyDye5-dUTP incorporated in the synthesized complementary strand; 3' TTTTT single-stranded linker to array surface; dsDNA, one strand shown. The method, boiled down:
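For the binding signal, per-feature fluorescence intensity was read in arbitrary units on an Axon 4000B scanner. Before scanning, a 2% BSA-blocked custom Agilent array made double-stranded with Cy5-dUTP was washed after 1 h at 25 °C with 200 nM protein and 50 µM zinc acetate. The proteins were Ni–NTA-purified transcription factors with N-terminal polyhistidine and DsRed fusions, expressed in E. coli BL21-CodonPlus.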
“CCCATCATCCGCCCATGTCCCTGATTGATTGAAATTCATTCGGAGTCACCTAGTGCAG”: the binding signal was 23300 fluorescence intensity (a.u.).
As for “AGTTAGATTATTGCTTGATAAATCCAGCATTAGCAGGTCTCGGAGTCACCTAGTGCAG”, the binding signal is 19100 fluorescence intensity (a.u.).
In the case of “CCTATGATTTGTGGGACCAAAAGATAAGAAATCATTGCATCGGAGTCACCTAGTGCAG” it was 17000 fluorescence intensity (a.u.); in that of “AAAATGCTAGAATGATTTATATTGTGAAACGGAGGGAGTCCGGAGTCACCTAGTGCAG”, 4150 fluorescence intensity (a.u.).
In the case of “AATAAATCACACTAATCTGCTCTGCTTGCTGGGCCTCACACGGAGTCACCTAGTGCAG” it was 9820 fluorescence intensity (a.u.); in that of “GTAATTACTGCTATCAGATTTACTTGGCTGAAGAAAGGCACGGAGTCACCTAGTGCAG”, 8680 fluorescence intensity (a.u.); in that of “AGCTTGATTATCTTCTCTTGATTTACTAGTATACCTTTAGCGGAGTCACCTAGTGCAG”, 44000 fluorescence intensity (a.u.).
Take “CTAACAATTATCTCAACCGTTTGATTTAGATATATAGAAACGGAGTCACCTAGTGCAG”: the binding signal is 13300 fluorescence intensity (a.u.).
Take “TTTATATAATTAGTTTTGTAAGTAATCTATATTTAATACTCGGAGTCACCTAGTGCAG”: the binding signal is 5900 fluorescence intensity (a.u.).
As for “ATGACAGTTTCAGATAAATTAAGCTCTCATGTCAGACAGTCGGAGTCACCTAGTGCAG”, the binding signal was 11300 fluorescence intensity (a.u.).
“GAAGATTGAGCTCTGCAGCAACAACCCAAACACACAAAGCCGGAGTCACCTAGTGCAG”: the binding signal is 3290 fluorescence intensity (a.u.).
In the case of “TTCGCATGATTTTGTACATACCACTTTCTGCCTATGCAAGCGGAGTCACCTAGTGCAG” it was 5030 fluorescence intensity (a.u.).
For “GTCTCTTTCAATCACAAATGATTGCTGACTAAACTTGTTTCGGAGTCACCTAGTGCAG”, the binding signal is 39100 fluorescence intensity (a.u.).
For “TATAATTGAATAAATTTTCATATTATATTTATCTTGTGTTCGGAGTCACCTAGTGCAG” the value was 63100 fluorescence intensity (a.u.); for “TTATTAGTTAATTAATAGTAGAAATAATATAGTCATTTCTCGGAGTCACCTAGTGCAG”, 12300 fluorescence intensity (a.u.).
For the sequence “GCGTCAATTAGTGCCTCTCTCTGTATGCATTCTTCCTATTCGGAGTCACCTAGTGCAG”, the binding signal is 23300 fluorescence intensity (a.u.).
For “AGTCTAATTAGTCTATGATTAGCCATAAGTACTATAGTAACGGAGTCACCTAGTGCAG” the value was 48400 fluorescence intensity (a.u.); for “GAGGCTAATTGCCTTCGCAAGCAAACAAACCCAGCGCGGTCGGAGTCACCTAGTGCAG”, 13400 fluorescence intensity (a.u.).
In the case of “TATAAAATTAGAAACATGATAATGATAAGGTTTGATATTTCGGAGTCACCTAGTGCAG” it was 7420 fluorescence intensity (a.u.).
In the case of “GATTAATTTATTTTGAAAAGATAAGAGTACAGACGACTCTCGGAGTCACCTAGTGCAG” it was 14800 fluorescence intensity (a.u.).
For the sequence “GCAGTTGATGGTCAAAATTGGTAGTTAACAACCGTCAACACGGAGTCACCTAGTGCAG”, the binding signal was 7710 fluorescence intensity (a.u.).
In the case of “ATTTAATTGCAATGAATTTAATGGTGTAATTGGACCATAACGGAGTCACCTAGTGCAG” it was 37900 fluorescence intensity (a.u.); in that of “CAGATGAAGTGATTGCAAATCTCAAGAACGACTTGGTTGACGGAGTCACCTAGTGCAG”, 11500 fluorescence intensity (a.u.).
For “TTTAGAGATAAATAAATTTAATAGACTCTATAGGACGTTACGGAGTCACCTAGTGCAG” the value was 6330 fluorescence intensity (a.u.); for “GTGGTGATAGGTGATGTACACGGCGCCGGGGAGGCGATGACGGAGTCACCTAGTGCAG”, 4940 fluorescence intensity (a.u.).
In the case of “ATTTAATCACCTCATTGATTGGATCACATCCATACTGTGACGGAGTCACCTAGTGCAG” it was 29800 fluorescence intensity (a.u.); in that of “CACCTATAATAACCTCAATTAACTTGGTGGCTTTATGCTCCGGAGTCACCTAGTGCAG”, 9290 fluorescence intensity (a.u.).
Take “CGTGCGAGTCGCTCATCAATCACGTCATTCGCCCACACACCGGAGTCACCTAGTGCAG”: the binding signal is 9080 fluorescence intensity (a.u.).
“AAATATATTCAATTATTGATTTGATGAAACTAATTTCGTACGGAGTCACCTAGTGCAG”: the binding signal is 23500 fluorescence intensity (a.u.).
In the case of “AAAATTTGACAATATAACTTATATTGACATAACCTCCATACGGAGTCACCTAGTGCAG” it was 11700 fluorescence intensity (a.u.).
Take “TTTAGACAGTAATTAAAGTCGAATTACATTGCATTGTTCGCGGAGTCACCTAGTGCAG”: the binding signal is 40300 fluorescence intensity (a.u.).
For the sequence “AGCGAGATTGACTTGTTTGAAGTCAGATCAAAGCCATAATCGGAGTCACCTAGTGCAG”, the binding signal was 4870 fluorescence intensity (a.u.).
Turning to “CGAAATTACTAATTACTGTTACCATTTTGTGCGTATCCTGCGGAGTCACCTAGTGCAG”, the binding signal was 35800 fluorescence intensity (a.u.).
On to “TTTAGTGATTTGTCTAGTAATCACCTTGGTGGTTTGATTCCGGAGTCACCTAGTGCAG”, for which the binding signal is 17200 fluorescence intensity (a.u.).
Take “TGGTAATTAGCTGGTGGATGCTGAACGTATTATTTTATTACGGAGTCACCTAGTGCAG”: the binding signal was 16300 fluorescence intensity (a.u.).
In the case of “AAATTGAAAATTTTCAAATCAAGATTTGAAAACTATCAAGCGGAGTCACCTAGTGCAG” it was 6740 fluorescence intensity (a.u.); in that of “GGGAGCTTGACTGGATCTGAGCTAGCTGGATTGGTGGGTGCGGAGTCACCTAGTGCAG”, 4970 fluorescence intensity (a.u.).
In the case of “TATATATATATATATATATATATATATATATATGTGTGTGCGGAGTCACCTAGTGCAG”, the binding signal was 25400 fluorescence intensity (a.u.).
On to “AACATAATTGAGTAAATTGTATTTTCCTTTTGTGTTAGAGCGGAGTCACCTAGTGCAG”, for which the binding signal is 32600 fluorescence intensity (a.u.).
For “CTACTACAATGATTATTAATTATATGAATTTGGACTAGAGCGGAGTCACCTAGTGCAG” the value was 28000 fluorescence intensity (a.u.); for “ATAATTTCCAATTTCTTTCCATACGTTTCTAACCTAGACCCGGAGTCACCTAGTGCAG”, 8590 fluorescence intensity (a.u.).
With “TACATCATGATTTGCAGTTCTTTGGCCTGATGAGTAAACCCGGAGTCACCTAGTGCAG”, the binding signal was 13700 fluorescence intensity (a.u.).
